Measured values published in patent EP4736886A1, “METHOD FOR PREPARING ANTIBODY-SMALL MOLECULE DRUG CONJUGATE AND USE THEREOF” (priority 2023, dated 2025).

B1: Mutant 22-DXd (conjugate)
heavy: QVQLVESGGGLVQPGGSLRLSCAASGITFPVNAYGWYRQAPGKQRDLVAIISAGGTTNYADSVKGRFTISRDNSKNTLYLQMNSLRAEDTAVYYCYLQRRIGMLRDYWGQGTQVTVSSERKCEECVE[human IgG1 Fc not spelt out]
B2: Mutant 23-DXd (conjugate)
heavy: QVQLVESGGGLVQPGGSLRLSCAASGITFPVNAYGWYRQAPGKQRDLVAIISAGGTTNYADSVKGRFTISRDNSKNTLYLQMNSLRAEDTAVYYCYLQRRIGMLRDYWGQGTQVTVSSERKCDDCVE[human IgG1 Fc not spelt out]
B3: Mutant 39-DXd (conjugate)
heavy: QVQLVESGGGLVQPGGSLRLSCAASGITFPVNAYGWYRQAPGKQRDLVAIISAGGTTNYADSVKGRFTISRDNSKNTLYLQMNSLRAEDTAVYYCYLQRRIGMLRDYWGQGTQVTVSSERKCDDCVECPPCP[human IgG4 Fc not spelt out]
B4: Mutant 40-DXd (conjugate)
heavy: QVQLVESGGGLVQPGGSLRLSCAASGITFPVNAYGWYRQAPGKQRDLVAIISAGGTTNYADSVKGRFTISRDNSKNTLYLQMNSLRAEDTAVYYCYLQRRIGMLRDYWGQGTQVTVSSERKCEECVECPPCP[human IgG4 Fc not spelt out]

Tests used:
[1] = Size-exclusion chromatography analysis of aggregate formation; assay type: physicochemical; conditions: DXd conjugates, FIG. 7 and FIG. 9
Method: Size-exclusion chromatography analysis was performed. […]
Based on Antibody 3 and Antibody 4, amino acid residues with different properties were inserted between the cysteine residues at positions 4 and 5. Specifically: nonpolar amino acids, exemplified by the insertion of two alanine residues (A); polar uncharged amino acids, exemplified by the insertion of two serine residues (S); basic amino acids, exemplified by the insertion of two lysine residues (K); and acidic amino acids, exemplified by the insertion of two glutamic acid residues (E) or two aspartic acid residues (D), as shown in Table 5. The different mutants were expressed and purified. […]
The different mutants listed in Table 6 were expressed and purified. […] The thermal stability of these ten heavy-chain antibodies was further evaluated using dynamic light scattering (DLS). A DLS (Wyatt) instrument was used to monitor light scattering of the antibodies during heating from 25 °C to 85 °C, thereby determining the aggregation temperature (Tagg) of the antibodies.
VHH1 was separately linked to the engineered human IgG2 Fc or the engineered human IgG4 Fc shown in Table 7 to construct heavy-chain antibodies. After expression and purification, Mutant 37, Mutant 38, Mutant 39, and Mutant 40 were obtained.

OVCAR-3 cells = test: Cell killing assay, cell viability by CellTiter-Glo; assay type: cell-based, human; conditions: 5 days at 37°C; compared to Antibody 1-DXd, FIG. 11
Method: OVCAR-3 cells were seeded into a 96-well plate at a density of 5,000 cells per well and cultured overnight at 37°C. Antibody 1-DXd, Mutant 22-DXd, Mutant 23-DXd, Mutant 37-DXd, Mutant 38-DXd, Mutant 39-DXd, and Mutant 40-DXd were serially diluted and added to the 96-well plate containing OVCAR-3 cells, followed by incubation at 37°C for 5 days. Cell viability was measured using CellTiter-Glo (Promega) to evaluate the killing effects of the antibody-drug conjugates.

[2] = Hydrophobic interaction chromatography and LC-MS analysis of drug loading; assay type: physicochemical; conditions: after TCEP reduction and conjugation with maleimide-GGFG-DXd
Method: Antibody 1 and Antibody 2 were separately incubated with TCEP (Sigma) to reduce and open the disulfide bonds between the two heavy chains, followed by the addition of maleimide-GGFG-DXd (MedChemExpress) for conjugation. The conjugates were then purified using a desalting column to remove excess small-molecule drug.

Molecule | size-exclusion chromatography peak profile after conjugation [1] | killing effect on OVCAR-3 cells (OVCAR-3 cells) | drug-to-antibody ratio (DAR) value [2]
B1 | nearly identical to those of corresponding mutants before conjugation | significantly enhanced killing effect | 
B2 | nearly identical to those of corresponding mutants before conjugation | significantly enhanced killing effect | 
B3 | normal | significantly enhanced killing effect | 8
B4 | normal | significantly enhanced killing effect | 8
